# From PubChem BioAssay AID894 (National Center for Advancing Translational Sciences (NCATS), 2007)
# Among all 150,000 compounds or so, about 6,500 (4.3%) were called active. The inconclusive results got no clear call from the source; some entries with a clear call stand among them for comparison. Calls come from the whole dose curve; as a rule, active = well fitted inhibition curve with a large enough effect (not every such curve was filed as active); inconclusive = small, poorly fitted or top-dose-only effect, or another doubt; inactive = no such curve, though single readings can be large or run the other way. Potencies of inconclusive entries are left out as doubtful fits.
# Target: 15-hydroxyprostaglandin dehydrogenase [NAD(+)] (Homo sapiens) (UniProt P15428)
# Experiment: qHTS Assay for Inhibitors of HPGD (15-Hydroxyprostaglandin Dehydrogenase)
# Conditions: purified HPGD, NADH fluorescence kinetic, PGE2 substrate; activity change, negative = inhibition: hits give low values
# In short: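 20 nM HPGD preincubated 15 min at room temperature with compound in 50 mM Tris-HCl pH 8, 0.01% Tween 20. Started with 1 mM NAD+ and 30 uM prostaglandin E2; NADH fluorescence (360/450 nm) read 5 times over 30-s intervals, last minus first.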
# % is set by controls: 0 for no effect and ±100 for the full control effect; potency is the fitted concentration of half-maximal effect; tags give direction and shape of the fitted curve.
# UniProt P15428, sequence (P15428 whole entry, looked up): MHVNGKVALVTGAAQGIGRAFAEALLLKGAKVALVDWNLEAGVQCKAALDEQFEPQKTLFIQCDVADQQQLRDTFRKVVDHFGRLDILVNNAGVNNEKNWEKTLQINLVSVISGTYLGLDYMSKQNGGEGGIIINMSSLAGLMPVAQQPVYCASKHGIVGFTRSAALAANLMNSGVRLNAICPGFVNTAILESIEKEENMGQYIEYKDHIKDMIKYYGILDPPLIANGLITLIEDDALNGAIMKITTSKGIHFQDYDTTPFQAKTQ
Compound,"activity change, negative = inhibition",Potency
COc1ccc(-n2c(=O)c(CCc3ccccc3)nc3cnc(N(C)C)nc32)cc1,inactive: -7.56%,
CC(=O)c1ccc(NC(=S)NCCc2ccccn2)cc1,inactive: -7.35%,
Cc1cc(C)cc(Nc2nc(-c3ccc(S(=O)(=O)N4CCCC4)cc3)cs2)c1,,"inconclusive [inhibitor, partial curve]"
COc1ccc(C2C(C#N)=C(N)OC(C(C)(C)C)=C2C#N)cc1OC (stereo not given),,"inconclusive [inhibitor, single point]"
COc1ccc(-c2nnc(N(C)C(=O)c3ccno3)s2)cc1,,"inconclusive [inhibitor, single point]"
COc1ccc(-c2cnc3nc[nH]c(=O)c3n2)cc1,,"inconclusive [inhibitor, partial curve]"
CC1CCCC(C)N1C(=O)CSc1nnnn1-c1cccc2c1CCCC2 (stereo not given),inactive: -15.6%,
O=C(CSc1ncccc1-c1nc2ccccc2[nH]1)N1CCN(c2ccccc2F)CC1,,"inconclusive [inhibitor, partial curve]"
C(=C\c1nnc(-c2cccs2)o1)/c1ccccc1,,"inconclusive [inhibitor, partial curve]"
O=c1oc2cc(Br)ccc2n1CSC1=NCCS1,,active: 22.4 µM
COc1ccc(NC(=O)N2CC[C@@]3(CCCN(C(=O)c4ccc(OC)cc4)C3)C2)cc1,inactive: 3.93%,
COc1ccc(C(=O)N2CCC[C@@]3(CCN(C(=O)Nc4ccccc4)C3)C2)cc1,inactive: -5.27%,
CCS(=O)(=O)N1CCC(C(=O)NCCc2ccc(OC)c(OC)c2)CC1,inactive: -5.68%,
CCCCS(=O)(=O)Nc1ccc(C)cn1,,"inconclusive [inhibitor, partial curve]"
Cc1ccc(C(=O)N2CCN(c3ccc(NC(=O)c4ccc(Br)o4)cc3)CC2)cc1,inactive: -27.3%,
N#C/C(=C\c1cccc(Cl)c1)c1n[nH]c(Cn2cncn2)n1,,"inconclusive [inhibitor, partial curve]"
CSc1nnc(-c2sc(-c3ccccc3)nc2C)n1C,,"inconclusive [inhibitor, partial curve]"
CCOc1ccc2oc(=O)cc(C)c2c1,,"inconclusive [inhibitor, partial curve]"
Cc1cccc(OCc2nnc(SCC(=O)c3ccccc3)o2)c1,,"inconclusive [inhibitor, partial curve]"
CCN1CC(O)=C(c2nc3ccccc3s2)C1=N,,"inconclusive [inhibitor, partial curve]"
